Source: the supplement of paper PMC12217912
This is one part of the list. Sequences were assembled here from the parent chain. Inactive controls read about 0.05.

B1: TEV protease; numbered along this chain (parent)
chain: MGESLFKGPRDYNPISSSICHLTNESDGHTTSLYGIGFGPFIITNKHLFRRNNGTLVVQSLHGVFKVKDTTTLQQHLVDGRDMIIIRMPKDFPPFPQKLKFREPQREERICLVTTNFQTKSMSSMVSDTSCTFPSGDGIFWKHWIQTKDGQCGSPLVSTRDGFIVGIHSASNFTNTNNYFTSVPKNFMELLTNQEAQQWVSGWRLNADSVLWGGHKVFMVKPEEPFQPVKEATQL

Variants of: B1
Test: raw area under fraction-flipped curve 0-4 h after induction (AUC4h, not background-subtracted), DNA-recorder readout of cleavage of the substrate (dimensionless); higher = more cleavage of the substrate by the protease variant
Settings: temperature: 34 °C; time window: 0-4 h after rhamnose induction
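Further: Bxb1 expression induced with 0.2% (w/v) L-rhamnose at OD600 near 0.5, cultures sampled hourly, flipped fraction per protease–substrate barcode pair counted by paired-end Illumina sequencing.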

Variant | area with substrate ENLYFDS | area with substrate ENLYFFS | area with substrate ENLYFIS | area with substrate ENLYFMS | area with substrate ENLYFNS | area with substrate ENLYFPS | area with substrate ENLYFSS | area with substrate ENLYFVS | area with substrate ENLYFWS | area with substrate ENLYFES | area with substrate ENLYFHS | area with substrate ENLYFTS | area with substrate ENLYFYS | area with substrate ENLYFGS | area with substrate ENLYFKS | area with substrate ENLYFLS | area with substrate ENLYFRS
D137V | 0.0569 | 0.0604 | 0.046 | 0.0643 | 0.0884 | 0.0574 | 0.115 | 0.0504 | 0.0554 |  |  |  |  |  |  |  | 
H143G | 0.0505 |  | 0.0471 | 0.0613 | 0.0562 | 0.0567 |  |  | 0.0546 | 0.0521 | 0.0601 | 0.0561 | 0.0502 |  |  |  | 
Q146P | 0.0553 | 0.0732 | 0.0657 | 0.0792 | 0.071 | 0.0529 | 0.0441 | 0.063 | 0.104 | 0.0628 |  |  |  | 0.0572 | 0.0656 | 0.0623 | 0.0695
L156R | 0.0603 |  | 0.0441 | 0.0508 | 0.056 | 0.0738 |  | 0.0518 | 0.037 | 0.0473 | 0.0367 | 0.0495 | 0.0745 | 0.0495 |  | 0.051 | 
S158Y | 0.0561 | 0.0462 | 0.0441 | 0.0611 | 0.06 | 0.0485 | 0.0497 |  | 0.0536 | 0.0514 | 0.0496 | 0.0639 |  | 0.0495 |  |  | 
T159I | 0.0652 | 0.0908 | 0.0518 | 0.0707 | 0.083 | 0.0717 |  |  | 0.0634 | 0.0449 |  | 0.0805 | 0.0468 |  |  |  | 
G162D | 0.0514 | 0.0742 | 0.0634 | 0.0684 | 0.0546 | 0.0578 | 0.0556 |  | 0.0513 |  | 0.0505 | 0.0635 | 0.0269 | 0.0562 | 0.0543 |  | 0.0517
G162F | 0.0513 | 0.0643 | 0.0602 | 0.0641 | 0.0614 | 0.063 |  | 0.0568 |  | 0.0188 | 0.0336 | 0.06 | 0.0543 |  | 0.0847 | 0.0504 | 0.0515
S169I | 0.0714 | 0.0641 | 0.0527 | 0.0658 | 0.0596 | 0.041 | 0.0547 |  | 0.0604 | 0.0595 | 0.0615 | 0.0575 | 0.0553 | 0.055 | 0.015 | 0.0485 | 0.0637
F173E | 0.0646 |  | 0.0489 | 0.0569 | 0.0604 | 0.0472 | 0.0662 |  |  |  | 0.0536 | 0.0555 |  |  |  |  | 
M219T | 0.0429 | 0.0659 | 0.0514 | 0.0589 | 0.0399 | 0.0679 | 0.072 | 0.062 | 0.0728 | 0.0369 | 0.0566 |  | 0.0586 | 0.0853 |  |  | 0.0473
V229Q | 0.0643 | 0.0706 | 0.0585 | 0.0865 | 0.0715 | 0.0618 | 0.043 | 0.0526 |  | 0.0697 | 0.0603 | 0.0584 | 0.0648 |  | 0.0698 | 0.0482 | 
P9C |  | 0.0697 | 0.0554 | 0.0497 | 0.0581 | 0.0821 | 0.0438 |  | 0.0509 | 0.0614 |  |  |  |  |  |  | 
F41Q |  | 0.063 | 0.0399 | 0.0562 | 0.0517 | 0.0505 | 0.054 |  | 0.0451 | 0.0451 |  | 0.0945 | 0.0427 | 0.0574 | 0.0607 |  | 0.0392
H62I |  | 0.0735 | 0.0523 | 0.0478 |  |  | 0.0547 | 0.0735 |  | 0.062 |  |  |  | 0.0439 | 0.0633 | 0.0549 | 0.0526
Q75A |  | 0.0511 | 0.0603 | 0.0691 | 0.0705 |  |  |  | 0.0688 | 0.084 |  |  |  |  | 0.0901 | 0.0698 | 
Q75E |  | 0.0481 | 0.0516 | 0.0623 | 0.0561 | 0.0672 | 0.0601 | 0.053 | 0.046 | 0.063 | 0.0724 | 0.0498 | 0.0444 |  | 0.0588 | 0.0487 | 

Variant | area with substrate ENLYFDS | area with substrate ENLYFFS | area with substrate ENLYFIS | area with substrate ENLYFMS | area with substrate ENLYFNS | area with substrate ENLYFPS | area with substrate ENLYFSS | area with substrate ENLYFVS | area with substrate ENLYFWS | area with substrate ENLYFES | area with substrate ENLYFHS | area with substrate ENLYFTS | area with substrate ENLYFYS | area with substrate ENLYFGS | area with substrate ENLYFKS | area with substrate ENLYFLS | area with substrate ENLYFRS
H76D |  |  | 0.053 | 0.06 |  | 0.0506 | 0.0516 |  | 0.0583 | 0.0611 |  | 0.0609 |  |  | 0.0635 | 0.0488 | 0.0435
P94A |  | 0.0574 | 0.0563 |  |  |  | 0.0615 |  |  | 0.0657 |  | 0.0605 | 0.0643 |  |  |  | 
L99Y |  | 0.0703 | 0.0494 | 0.0671 | 0.0675 |  | 0.0598 |  | 0.0559 | 0.0599 | 0.0641 | 0.0508 | 0.0548 |  |  |  | 0.0473
R106E |  | 0.0729 | 0.0764 | 0.0777 |  | 0.0626 |  | 0.0541 |  | 0.0636 | 0.0433 | 0.0688 | 0.0638 |  | 0.065 |  | 0.0574
E107L |  |  |  |  |  |  | 0.0592 |  |  | 0.101 |  | 0.0575 |  |  |  |  | 
T114R |  | 0.0574 | 0.053 |  | 0.0572 | 0.0582 | 0.0635 | 0.0571 |  | 0.0691 | 0.0634 | 0.0581 | 0.0601 | 0.0657 | 0.0791 |  | 0.0712
F140W |  |  | 0.0568 |  |  |  |  |  |  | 0.0591 |  |  |  |  |  |  | 
T174K |  |  | 0.0593 | 0.07 |  |  |  | 0.0285 |  | 0.102 |  | 0.058 | 0.051 |  | 0.0615 |  | 
T174S |  |  | 0.0563 | 0.05 |  | 0.0524 |  |  |  | 0.0637 |  |  | 0.0466 |  |  |  | 
N178A |  |  |  | 0.0696 |  |  | 0.067 |  |  | 0.0652 |  |  | 0.0471 |  |  | 0.0671 | 
R204G |  | 0.0671 | 0.0525 |  | 0.0651 | 0.0606 | 0.0566 | 0.062 | 0.0675 | 0.0659 |  | 0.0462 |  |  |  | 0.0501 | 0.074
P222A |  | 0.065 | 0.0656 |  | 0.0672 | 0.071 | 0.0679 |  |  | 0.0618 | 0.0828 | 0.0532 |  |  | 0.0587 | 0.0534 | 
V229K |  | 0.0802 | 0.0488 | 0.0667 | 0.0467 | 0.0618 |  | 0.055 | 0.0953 | 0.0472 | 0.0538 | 0.0689 |  |  |  |  | 
Q59K |  | 0.0486 | 0.0527 |  | 0.0655 | 0.0696 |  | 0.0412 | 0.0572 |  |  | 0.0705 |  |  |  | 0.0472 | 0.055
F101V |  | 0.0403 | 0.0637 |  |  | 0.0499 | 0.0462 |  |  |  |  |  |  |  |  |  | 0.0529
S209D |  | 0.0733 | 0.0615 | 0.0608 |  | 0.0602 |  | 0.0286 |  |  |  | 0.0464 |  | 0.0597 |  |  | 
T233E |  | 0.069 | 0.0625 | 0.0612 | 0.0421 | 0.0631 | 0.0529 | 0.0595 |  |  |  | 0.056 |  |  | 0.0626 | 0.0605 | 
